Measurements as given in the supplement of paper PMC11417369.
± gives the standard deviation of the averaged measurements. Some of the results follow.

tested on: PfAP2-G AP2 domain (GST-tagged); assay: gcPBM binding intensity (ln(normalized median fluorescence intensity)); higher = stronger DNA binding
Outline: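 GST-tagged P. falciparum DNA-binding domains produced in E. coli were incubated for 1 h on an Agilent 4 × 180k array of primer-extended double-stranded 36-bp intergenic genomic probes with negative controls. Binding intensity is the highest Masliner-normalised natural-log median intensity across replicate spots of either probe orientation, with bound protein detected by Alexa488 anti-GST antibody at 488 nm.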

Row | Sequence | gcPBM binding intensity (ln)
1 | AGTACATTATAGAATACACACCTATATATATATATA [CACACA_site4447] | 10.3 ± 0.25
2 | TAAAATTAATAAAATATTTTCACTTAATATATATAA [CACACA_negctrl_site1550] | 9.55 ± 0.22
3 | ATGTTGTACAAACACACACACAAAAAAAAAATAAAA [CACACA_site2406] | 11.2 ± 1.2
4 | ATATATATATGTGGATGTACATATATCTCTTATTAT [XGTACX_site1748] | 11 ± 0.49
5 | AATATAAAAATGTTTACACACACACGGAAATATATT [CACACA_site7226] | 10.21 ± 0.092
6 | CATATATATATTTTTTGTACATATATTTTTACATAT [XGTACX_site8419] | 11 ± 0.45
7 | TTTTACATAAATTATAAATATATAAAATAAAAAAAA [CACACA_negctrl_site1499] | 9.72 ± 0.028
8 | TTAATATTCCAGCTTTGTACATATATATATTATAAA [XGTACX_site7954] | 10.7 ± 0.47
9 | TTAATGGAAAAATAGGCACACACACCGATATACATA [CACACA_site8356] | 10.24 ± 0.064
10 | TGGCTTTCCCTGCCGGTGCATTAACATTTTTTACAT [GTGCAC_site9914] | 9.9 ± 0.16
11 | AAAAAGAAGAAGAAATGTACGTAACTATATATTTAT [XGTACX_site4362] | 11.2 ± 0.66
12 | TTTATTTTTGAAGTTGCACACACAAAAATAAAAAGT [CACACA_site8030] | 10.4 ± 0.47
13 | CCTAAAGTGTAAAATTCACACACATATATATATATA [CACACA_site8385] | 10 ± 0.23
14 | TTTATTTATAGGTATACACACTTTAATTAAAAGTTG [CACACA_site7232] | 10.8 ± 0.33
15 | ATATGGGTGAACATATGTACATATATATATTGATAA [XGTACX_site8438] | 11.1 ± 0.52
16 | TTGGTATATTATAAAAGTACACATAATAAAAAATTT [XGTACX_site7985] | 11.5 ± 0.93
17 | AATTCAATTGAGCAAAATTCAAATAAATTAAAAAGA [XGTACX_negctrl_site71] | 9.725 ± 0.035
18 | CAAAAATAATTTAGGTGTACAAATTTGACAAAAAAA [XGTACX_site188] | 11.7 ± 0.59
19 | ATGAAACACTCCATAGTGCAAAATATATATTATATT | 9.95 ± 0.014
20 | CTATTTTTCCTGAAATGTACAAGAATTTTATTTGAT [XGTACX_site8867] | 10.8 ± 0.56
21 | TGATAATATTATATATGTACATATATGTATATTTTT [XGTACX_site7193] | 11.1 ± 0.55
22 | ATTTTTCATTCTGGACATGTTACCATTATATATATG [CACACA_negctrl_site61] | 10.7 ± 0.26
23 | ATAACTATAATAATCATACACACCAAAGAGAATATT [CACACA_site6970] | 9.995 ± 0.049

Row | Sequence | gcPBM binding intensity (ln)
24 | ATTATTACTTTTTGAGTGCACATACACACAGACATA | 10.7 ± 0.47
25 | TTACATAATTTATGTACACACGCAAATACTTATAAT [CACACA_site4331] | 11.5 ± 0.81
26 | ATTAAAAAAATATACGCACACAAAATGTAATAACAA [CACACA_site2439] | 10.4 ± 0.21
27 | TAATTTGTTATGTATTGTACAAATAATATATGATAT [XGTACX_site1985] | 10.9 ± 0.63
28 | TTTTGTTTAAAAAAAAAAAACAAAAAAAAGCAATTA [CACACA_negctrl_site314] | 9.82 ± 0.13
29 | ACATTAACATTGTTGGTGCAAAATTAATATGTTTTT [GTGCAC_site9673] | 9.97 ± 0.16
30 | AGTAGTCTGGAGAAGAGTACACAGTATCTGGTAGCT [XGTACX_site2042] | 11.5 ± 0.9
31 | TATGTGAATATTGAGGTGCGGTTGTTAAAATTTATA [GTGCAC_site9915] | 10.2 ± 0.25
32 | CAAACATATTAATGTACACACACCCACCCACAAACA [CACACA_site2752] | 11.4 ± 0.88
33 | TTTTTTTCAATATTTGCACACGATTAAAATATTTAA [CACACA_site5266] | 10 ± 0.17
34 | TATTATATATATATATGTACATATTGTATGTTATAT [XGTACX_site5303] | 11.1 ± 0.56
35 | TAATTATTATTAATAGTACACACTATGGCATTTCAA [CACACA_site2488] | 11.1 ± 0.84
36 | TTAAATATTTTTTATACACACATTTCTTATTTAACT [CACACA_site229] | 9.9 ± 0.085
37 | TTTTACTAAATATATACACACATTATGCATATATAT [CACACA_site3287] | 10.03 ± 0.078
38 | ACCCACGTAAATTAAGCATGCCTTCCGTTATATTTA [TGCATGCA_site365] | 10 ± 0.014
39 | TATATGTAATATTATACATGCATACATAATATATAT [TGCATGCA_site558] | 9.89 ± 0.2
40 | TATGTGAATATAATCACACACAATACGGAAAGAGAC [CACACA_site7311] | 10.7 ± 0.39
41 | TTTTTTTTTTATAAGGCACACATGAATATTTATACA [CACACA_site1316] | 10.3 ± 0.38
42 | CTGTGTAATTTAAATTGTACGTTTGAAAAAAATAAA [XGTACX_site5667] | 11.2 ± 0.77
43 | AAAACACTTATGGATTGTACAATAAAAATTATATTA [XGTACX_site7042] | 10.9 ± 0.49
44 | AATGTGATAATATACACACACGCATATATATATATA [CACACA_site323] | 10.5 ± 0.81
45 | TTTTAAAGAAAAAAATGTACAAAATTTTTATTTTAA [XGTACX_site1496] | 10.6 ± 0.35
46 | GTATTATCTGCTTTTTGTACACATATATTTAAAAAA [XGTACX_site7603] | 11.4 ± 0.95

Row | Sequence | gcPBM binding intensity (ln)
47 | ACATTCACAAAATTTTGTACACATATATATATATAT [XGTACX_site3518] | 11.3 ± 0.87
48 | TTCTGTGTGTATTGGCGTACAATTATTTTGCCTACA [XGTACX_site205] | 11.7 ± 0.83
49 | TATATGTCAATATCTACACACATATAGGTAATTATT [CACACA_site7475] | 10.01 ± 0.057
50 | TATACTATACAACACATACACACAAAAAAAAAAAAA [CACACA_site537] | 9.96 ± 0.52
51 | CGATTTTTTAAGTTTGTGCACTTAAAAACTATAACA | 10.5 ± 0.4
52 | CCATTTGATAATAATGCACACCACATATATTTATAT [CACACA_site9002] | 10.14 ± 0.099
53 | AAAAGGAATTATAGGAAATAAATATATACAAATATA [TGCATGCA_negctrl_site528] | 9.63 ± 0.2
54 | TAAATCATGGGATAAGCATGCGCGCACATGTTTGTT [TGCATGCA_site768] | 10.2 ± 0.11
55 | TTTATTTATTAAGAATGTACATGTATTTGTTAAATA [XGTACX_site4465] | 11.2 ± 0.61
56 | AATTATGCATTTGTCACACATATATATTACACTTGC [CACACA_site5324] | 10.035 ± 0.007
57 | AAAAAAAAAAAAAAATGTACATTATACACATTATAT [XGTACX_site6824] | 11.1 ± 0.61
58 | TAGCCAAAATATAATTTACACACTTATTAAATAATT [CACACA_site7963] | 9.69 ± 0.099
59 | AAGAAAAATGTCATATGATATCATATATTTTATAAT [TGCATGCA_negctrl_site296] | 9.76 ± 0.014
60 | AAATAAATATATATATGTACATACAAATACACGGTA [XGTACX_site8510] | 11.2 ± 0.8
61 | ATTTTCCCTTGTTTTACACACGTGCTGATATGAGAT [CACACA_site2164] | 10.3 ± 0.14
62 | TTGTACTACAATCCTTTATTTATTTAAACCTGTATG [CACACA_negctrl_site428] | 11.6 ± 1.1
63 | AGGAGGATATTACACAGTACCCAGGAAATCTACGGA [XGTACX_site4878] | 10.8 ± 0.47
64 | TTTCAATGCATAAAAGTGCGCAATAATTTAAAGATC | 10.4 ± 0.32
65 | TATATAAATAGACACACACACACATATAAATAAATA [CACACA_site7855] | 10.2 ± 0.3
66 | AAAAAAAAATAAAATAAAATAAAATAAAATAATATA [CACACA_negctrl_site1798] | 9.29 ± 0.39
67 | AAACAAATGTACAAAGTGCATATTTTTTTCAAAAGG | 10.6 ± 0.57
68 | ACATATGTATAATAATGTACGCATTAAATATAATTA [XGTACX_site7851] | 11.4 ± 0.9
69 | GACCAATACTTTAAAAGTACAAACCTTATTTTATTT [XGTACX_site2718] | 11.2 ± 0.7

Row | Sequence | gcPBM binding intensity (ln)
70 | ATAATATATATTAATACACACACACCGATATATATA [CACACA_site9261] | 10.2 ± 0.22
71 | TTCAACATAATATGCACACAAAAATTATGGAACGAA [CACACA_site2111] | 10.2 ± 0.18
72 | AAAAAAAAAAAAATTGCACACAAAAAAAAAAAAAAA [CACACA_site8644] | 10.2 ± 0.4
73 | AAAAAAAACAAATACACACGCACACCGAAAAAAAAA [CACACA_site803] | 10.4 ± 0.3
74 | AGAGAGAGAAATACAAGTACATGTGAAACCAATCTA [XGTACX_site2767] | 11.2 ± 0.63
75 | AAAAAATAAAAAAAAACACACACATACAAGCATATA [CACACA_site8451] | 9.885 ± 0.007
76 | TTAATGCACTTTATTACACACACTAGTTCATTACCT [CACACA_site2294] | 10.3 ± 0.16
77 | CAGACAATAAAGAAGTGTACACATATATCAATAAAA [XGTACX_site4515] | 11.6 ± 0.76
78 | AAAAAAAAAAAACACACACACACACCCACAAAATAT [CACACA_site1447] | 10.1 ± 0.28
79 | AAAAAAAAATACCTACGTACATATATATATTATATA [XGTACX_site3983] | 11.2 ± 0.73
80 | TATATTATAATTTGAAGTACATTTTAAATTAACTAA [XGTACX_site1013] | 11.1 ± 1
81 | ATATAATAGTATATATGTACATATATTTAAATACTA [XGTACX_site1135] | 11.2 ± 0.49
82 | TAACATAGCAATGTTTCACACACAAGAAAAAATACA [CACACA_site8747] | 10.05 ± 0.049
83 | TGCAGTCTGGAGAAAAGTACATAGTATCTGGTAGCT [XGTACX_site2547] | 11.3 ± 0.76
84 | TAATTAAGCATAAATATAATTTTATATTTTATTTCC [XGTACX_negctrl_site321] | 9.35 ± 0.11
85 | ATTTGTAATTTATTCAAACACACAATTTGGACCTTT [CACACA_site1062] | 10.3 ± 0.39
86 | ATATATGTATATATTTGTACATATAATATTTTTTAA [XGTACX_site6345] | 10.8 ± 0.47
87 | TATTCACATACAGAAACACACACATATATATAAATT [CACACA_site9232] | 10.01 ± 0.021
88 | AATATAATAACTTATTGTACGAAATTATATCACCTT [XGTACX_site7883] | 10.7 ± 0.45
89 | TTTGTGTGTGCGTGTGCATGTTGTTTTTTTCTATAA [TGCATGCA_site17] | 10.5 ± 0.23
